In assay [1] the target is DOCK9, endogenous in HUVEC (human (endogenous in HUVEC)) (UniProt Q9BZ29). As to the kind of experiment: co-IP; as the HUVEC co-IP with VEGF (25 ng/ml), but after Rac1 knockdown (Rac1 siRNA ol1).
For assay [2] the target is unchanged. As to the kind of experiment: co-IP; endogenous proteins in HUVEC, serum starved 5 h and stimulated with VEGF (25 ng/ml), NP40 lysis buffer (20 mM Tris-HCl pH 7.5, 150 mM NaCl, 1% NP40), IP with anti-DOCK9 antibody, immunoblot of DOCK4. (In general: In western blotting, separated proteins are transferred to a membrane and probed.)
A further assay addresses T1, GST–SH3(DOCK4) (human) (UniProt Q8N1I0).
T1 sequence: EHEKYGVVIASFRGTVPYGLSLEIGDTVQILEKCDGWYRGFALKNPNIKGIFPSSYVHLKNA
As to the kind of experiment: pull-down; GST–SH3(DOCK4) or GST–ELMO1 on glutathione beads incubated with cell lysate (Rho lysis buffer) at 4 °C for 45 min, washed with TBS with 10 mM MgCl2; immunoblot of DOCK9 or DOCK4; for GST–ELMO also after siRNA knockdown of DOCK4 or DOCK9; only the target purified.

The chains behind the UniProt entries cited, without tags or fusion partners.
UniProt Q9BZ29: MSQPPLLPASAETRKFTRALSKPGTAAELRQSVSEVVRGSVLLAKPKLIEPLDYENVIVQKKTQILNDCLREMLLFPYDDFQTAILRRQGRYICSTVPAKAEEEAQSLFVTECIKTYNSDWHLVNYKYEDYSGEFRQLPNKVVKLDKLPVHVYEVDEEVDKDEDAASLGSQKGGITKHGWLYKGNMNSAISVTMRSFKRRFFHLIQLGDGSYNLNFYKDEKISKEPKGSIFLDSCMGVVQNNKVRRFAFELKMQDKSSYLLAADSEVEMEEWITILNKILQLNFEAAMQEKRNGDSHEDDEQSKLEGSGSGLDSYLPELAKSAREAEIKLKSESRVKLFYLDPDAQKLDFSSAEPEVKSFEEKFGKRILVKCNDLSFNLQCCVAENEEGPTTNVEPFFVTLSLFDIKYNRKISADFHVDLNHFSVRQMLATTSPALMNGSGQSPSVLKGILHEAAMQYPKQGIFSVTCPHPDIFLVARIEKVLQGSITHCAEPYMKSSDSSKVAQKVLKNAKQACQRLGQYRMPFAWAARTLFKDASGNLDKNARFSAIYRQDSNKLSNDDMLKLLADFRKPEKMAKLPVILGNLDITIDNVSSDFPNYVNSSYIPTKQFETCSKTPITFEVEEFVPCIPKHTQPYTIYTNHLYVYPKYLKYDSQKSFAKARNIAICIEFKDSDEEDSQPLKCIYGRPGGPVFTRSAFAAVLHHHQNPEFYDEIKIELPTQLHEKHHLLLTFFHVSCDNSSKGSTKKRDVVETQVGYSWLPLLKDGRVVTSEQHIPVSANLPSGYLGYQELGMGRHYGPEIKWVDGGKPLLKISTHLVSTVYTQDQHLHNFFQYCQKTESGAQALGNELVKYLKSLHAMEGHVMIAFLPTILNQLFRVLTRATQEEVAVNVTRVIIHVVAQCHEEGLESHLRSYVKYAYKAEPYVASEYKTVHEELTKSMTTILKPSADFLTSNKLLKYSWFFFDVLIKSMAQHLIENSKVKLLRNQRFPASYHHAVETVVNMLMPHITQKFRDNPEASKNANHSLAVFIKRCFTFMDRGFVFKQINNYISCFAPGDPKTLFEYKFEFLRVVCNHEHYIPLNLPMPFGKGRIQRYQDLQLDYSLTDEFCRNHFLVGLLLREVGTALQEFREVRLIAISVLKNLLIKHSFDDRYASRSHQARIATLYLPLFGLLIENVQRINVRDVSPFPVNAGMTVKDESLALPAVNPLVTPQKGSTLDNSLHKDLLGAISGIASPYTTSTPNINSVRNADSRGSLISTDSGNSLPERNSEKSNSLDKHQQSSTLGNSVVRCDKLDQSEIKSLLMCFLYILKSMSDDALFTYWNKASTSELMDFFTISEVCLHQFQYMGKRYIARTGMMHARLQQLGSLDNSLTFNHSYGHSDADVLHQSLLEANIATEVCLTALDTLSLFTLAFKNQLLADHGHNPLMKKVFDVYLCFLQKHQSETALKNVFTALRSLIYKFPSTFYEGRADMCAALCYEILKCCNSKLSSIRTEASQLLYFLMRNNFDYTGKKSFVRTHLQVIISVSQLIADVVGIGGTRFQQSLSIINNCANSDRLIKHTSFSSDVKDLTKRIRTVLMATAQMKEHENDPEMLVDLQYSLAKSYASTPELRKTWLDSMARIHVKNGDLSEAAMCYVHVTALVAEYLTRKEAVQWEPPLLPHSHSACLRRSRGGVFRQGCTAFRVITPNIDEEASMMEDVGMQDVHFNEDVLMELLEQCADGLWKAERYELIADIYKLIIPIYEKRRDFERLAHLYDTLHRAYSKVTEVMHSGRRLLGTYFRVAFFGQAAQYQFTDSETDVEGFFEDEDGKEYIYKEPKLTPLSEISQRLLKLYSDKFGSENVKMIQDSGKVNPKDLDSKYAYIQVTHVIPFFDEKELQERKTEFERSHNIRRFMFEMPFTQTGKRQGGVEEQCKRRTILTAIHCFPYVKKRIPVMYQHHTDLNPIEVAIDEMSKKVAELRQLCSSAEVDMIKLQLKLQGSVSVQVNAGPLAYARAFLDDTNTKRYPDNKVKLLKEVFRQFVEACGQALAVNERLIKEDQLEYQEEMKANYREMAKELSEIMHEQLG
UniProt P60953: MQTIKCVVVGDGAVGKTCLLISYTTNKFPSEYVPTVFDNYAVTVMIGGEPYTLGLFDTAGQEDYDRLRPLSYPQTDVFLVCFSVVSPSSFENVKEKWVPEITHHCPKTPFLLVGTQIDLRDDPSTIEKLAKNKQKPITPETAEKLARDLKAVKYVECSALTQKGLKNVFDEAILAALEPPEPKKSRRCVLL
UniProt P61586: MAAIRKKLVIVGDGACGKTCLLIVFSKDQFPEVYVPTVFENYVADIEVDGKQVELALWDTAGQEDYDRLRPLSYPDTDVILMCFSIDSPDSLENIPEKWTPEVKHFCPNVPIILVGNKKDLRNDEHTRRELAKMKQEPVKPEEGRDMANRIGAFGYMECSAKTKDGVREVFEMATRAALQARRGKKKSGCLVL
UniProt Q92556: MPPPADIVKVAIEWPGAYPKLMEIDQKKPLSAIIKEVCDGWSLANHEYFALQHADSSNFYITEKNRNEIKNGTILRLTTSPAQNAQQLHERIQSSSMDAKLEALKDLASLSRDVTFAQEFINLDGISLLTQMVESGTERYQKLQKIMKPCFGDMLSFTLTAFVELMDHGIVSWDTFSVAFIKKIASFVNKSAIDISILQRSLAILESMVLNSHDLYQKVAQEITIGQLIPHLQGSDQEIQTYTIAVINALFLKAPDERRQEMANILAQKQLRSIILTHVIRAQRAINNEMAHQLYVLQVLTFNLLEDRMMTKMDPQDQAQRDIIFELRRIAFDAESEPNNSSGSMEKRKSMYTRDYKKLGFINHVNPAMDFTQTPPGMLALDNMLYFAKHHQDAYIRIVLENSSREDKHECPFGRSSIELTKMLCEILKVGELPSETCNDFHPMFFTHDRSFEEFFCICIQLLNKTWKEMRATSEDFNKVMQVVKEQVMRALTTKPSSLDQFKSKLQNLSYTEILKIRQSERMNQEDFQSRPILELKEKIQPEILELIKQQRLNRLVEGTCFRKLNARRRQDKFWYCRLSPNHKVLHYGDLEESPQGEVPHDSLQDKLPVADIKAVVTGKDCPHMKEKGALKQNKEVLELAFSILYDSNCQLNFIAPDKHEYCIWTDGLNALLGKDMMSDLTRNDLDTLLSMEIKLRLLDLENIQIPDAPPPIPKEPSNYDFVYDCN

A further assay concerns the target Cdc42 GST fusion protein (UniProt P60953). As to the kind of experiment: pull-down; nucleotide-free pull-down: Rac1, RhoA and Cdc42 GST fusion proteins on beads with cell lysate in the presence of 15 mM EDTA to chelate magnesium and stabilize the nucleotide-free GTPase; immunoblot of DOCK4; only the target purified.
Another assay concerns the target RhoA GST fusion protein (UniProt P61586). Described as above.
A further assay concerns the target GST–ELMO1 (UniProt Q92556). Briefly: pull-down; GST–SH3(DOCK4) or GST–ELMO1 on glutathione beads incubated with cell lysate (Rho lysis buffer) at 4 °C for 45 min, washed with TBS with 10 mM MgCl2; immunoblot of DOCK9 or DOCK4; for GST–ELMO also after siRNA knockdown of DOCK4 or DOCK9; only the target purified.
The target in assay [3] is DOCK9 in HEK293T lysate, precipitated with anti-DOCK9 antibody (human (endogenous in HEK293T)) (UniProt Q9BZ29). Briefly: co-IP; HEK293T transfected with DOCK4 constructs, Rho lysis buffer (50 mM Tris-HCl pH 7.4, 100 mM NaCl, 10% glycerol, 1% NP40, 5 mM MgCl2), IP with anti-DOCK9 antibody and Protein G Sepharose at 4 °C, immunoblot of DOCK4.

These are yes or no findings as the source states them, for the method shown. Binding seen in cells or lysates may run through a third protein. Some entries that bind do so weakly or less than the wild type. For some assays here: Tags and fused reporters may be left off the sequences shown.

“DOCK4 (dedicator of cytokinesis 4), endogenous in HUVEC (from UniProt Q8N1I0 1-1966)”: the binding result in assay [1] is recorded as “no binding (condition: with knockdown of Rac1 (siRNA))”; in assay [2] it was “binds”.

“DOCK9 in the cell lysate used for GST pull-downs (from UniProt Q9BZ29 1-2069)”: the binding result with GST–SH3(DOCK4) (human) is listed as “binds”.

Consider “DOCK4 in the cell lysate used for GST pull-downs (from UniProt Q8N1I0 1-1966)”, for which the results for the binding result in the assay with Cdc42 GST fusion protein, with RhoA GST fusion protein and with GST–ELMO1 were “no binding”, “no binding” and “binds”, respectively.

Consider “GFP-tagged DOCK4 (from UniProt Q8N1I0 1-1966)”, for which the binding entry in assay [3] is recorded as “binds”.

Regarding “Flag-tagged DOCK4 wildtype (from UniProt Q8N1I0 1-1966)”, the binding result in assay [3] is recorded as “binds”.
